Measured values reported in PubChem BioAssay AID651820 (National Center for Advancing Translational Sciences (NCATS), 2012).
Among all 340,000 compounds or so, about 12,000 (3.5%) were called active. The inconclusive results got no clear call from the source; some entries with a clear call stand among them for comparison. Calls come from the whole dose curve; as a rule, active = well fitted inhibition curve with a large enough effect; inconclusive = small, poorly fitted or top-dose-only effect, or another doubt; inactive = no such curve, though single readings can be large or run the other way. No potency is given beside an inconclusive call; the fits are too rough.

experiment: qHTS Assay for Inhibitors of Hepatitis C Virus (HCV); conditions: Huh7.5.1 HCVcc-Cre (HCVcc is cell-culture hepatitis C virus) infection, luciferase reporter, 44 h; series mostly up to 41.8 µM
In short: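 HCVcc-Cre virus at an moi near 0.5 was added right after compound to cells cultured 4 h from seeding (1,000 cells/well). Luciferase activity was determined 44 h later, 15 min after substrate addition at RT.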
Potency is the fitted concentration of half-maximal effect; tags give direction and shape of the fitted curve.

SMILES	Potency
Cc1ccc(-c2csc(N(CC3CCCO3)C(=O)c3ccco3)n2)cc1 (centres undefined)	inconclusive [inhibitor, single point]
c1ccc(COc2ccc(OCCN3CCCCC3)cc2)cc1	inactive
CCCC(=O)N1CCN(c2ccc(NC(=O)c3ccc([N+](=O)[O-])o3)cc2)CC1	inconclusive [inhibitor, partial curve]
COc1cccc(NC(=S)N/N=C2/CCCCc3ccccc32)c1	inconclusive [inhibitor, single point]
Cc1ccc(F)cc1NC(=O)N1CCN(C2c3ccccc3-c3ccccc32)CC1	inconclusive [inhibitor, single point]
O=C1Nc2ccccc2C1(c1ccccc1)c1ccccc1	inconclusive [inhibitor, single point]
CCN1/C(=C\c2ccc3cc(C)ccc3[n+]2CC)Sc2cc(C)c(C)cc21	active: 2.82 µM
Cc1cccc(CS(=O)(=O)c2ncc(Cl)c(C(=O)NCc3ccccc3)n2)c1	inconclusive [inhibitor, single point]
COc1ccc(-n2cc(-c3ccc(C)cc3)[n+]3c2SCC3)cc1	inconclusive [inhibitor, partial curve]
COc1cccc(CN(C)CC(=O)Nc2sc3c(c2C#N)CCC3)c1OC	inconclusive [inhibitor, single point]
CN1CC=C2C(C#N)=C(N)C(C#N)(C#N)[C@H](c3ccoc3)[C@H]2C1	inactive
CC(C)CCCCCCCCCCCCC(=O)NCC(=O)NC1C(O)C(O)C(Nc2ncnc3nc[nH]c23)OC1C(O)CO (centres undefined)	inconclusive [inhibitor, full curve, poor fit]
COc1ccc(CCNC(=O)c2ccc([N+](=O)[O-])cc2Cl)cc1OC	inactive
Nc1ccccc1SC1CC(=O)N(c2ccccc2Cl)C1=O (centres undefined)	inactive
O=C(c1ccc(S(=O)(=O)NCc2ccco2)cc1)N1CCCC(C(F)(F)F)C1 (centres undefined)	inactive
CC1Sc2ccc(S(=O)(=O)N3CCC(C(=O)NCCc4ccccc4)CC3)cc2NC1=O (centres undefined)	inconclusive [inhibitor, single point]
O=c1oc2ccccc2c(Nc2ccc(Cl)cc2)c1[N+](=O)[O-]	inconclusive [inhibitor, single point]
COc1ccc(CNC(=O)C/C(C)=N/NC(=O)C23CC4CC(CC(C4)C2)C3)cc1	inactive
CC(C)Oc1ccc(C(=O)Nc2ccc(Cl)c(S(=O)(=O)Nc3ccc(Cl)cc3)c2)cc1	inconclusive [inhibitor, single point]
